Laboratory results from the RNAGym collection of RNA variant scans (doi:10.1073/pnas.2313332121).
Variants at the background level are over-represented here.

B1: TPR 5TU (parent)
chain: GGAUCUUCUCGAUCUAACAAAAAAGACAAAUCUGCCACAAAGCUUGAGAGCAUCUUCGGAUGCAGAGGCGGCAGCCUUCGGUGGCGCGAUAGCGCCAACGUUCUCAACUAUGACACGCAAAACGCGUGCUCCGUUGAAUGGAGUUUAUCAUG

Variants of: B1
Assay: polymerase ribozyme fitness, log enrichment relative to wild type (log ratio); higher = more active; in vitro selection for triplet polymerase activity
Summary of the method: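 For each subunit of a heterodimeric triplet polymerase ribozyme, a mutant library was built by PCR and transcribed, then taken through a single in vitro selection round in triplicate. Selection involved annealing to a biotinylated primer, the partner subunit and triplets, incubation frozen at −7 °C, gel excision of extended constructs, capture on streptavidin beads and RT-PCR. Genotypes were retained after Illumina sequencing of inputs and outputs only with ≥10 input reads and ≥1 read in each output. Fitness is defined as the logarithm of a genotype's enrichment relative to wild-type enrichment, using inverse-variance-weighted averages across replicates, with the logarithm taken to base 2.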

Row | Variant | polymerase ribozyme fitness (log ratio)
1 | G65A C85A C96G A110G | ≤ -4.2
2 | A64U G124A A150C | ≤ -4.2
3 | A64C C87U C96U C99G | ≤ -4.2
4 | G67A U82A U90C C99A G126A | ≤ -4.2
5 | A64C A73C U77C C96U U111G | ≤ -4.2
6 | G62U C76A U78G G81U G143C U144C | ≤ -4.2
7 | C63G C87U U151G | ≤ -4.2
8 | A64U C93U A150C | ≤ -4.2
9 | C63A A66C C116G A142C | ≤ -4.2
10 | A64C A107C C131A | ≤ -4.2
11 | G67U C87U G152A | ≤ -4.2
12 | G67A C99U | ≤ -4.2
13 | A66U C75G U82G A106C C116U | ≤ -4.2
14 | A66G C96U | -3.66
15 | A66C C123G G140A | ≤ -4.2
16 | C63G G67C | ≤ -4.2
17 | C63U C85U C95U C149U | -1.91
18 | C63G G74U G80U G88A C99U C108U | ≤ -4.2
19 | A66G A106C | ≤ -4.2
20 | G67A C87U A107U C125G G126C | -4.14
21 | A64C G68A C87A | ≤ -4.2

Row | Variant | polymerase ribozyme fitness (log ratio)
22 | G65C C76G C96G U145G | ≤ -4.2
23 | A66U G88A U109A A122C | ≤ -4.2
24 | C63G G70A C85A | ≤ -4.2
25 | A64C C93U U101G G140A | ≤ -4.2
26 | G65U U78A | -1.52
27 | G65U U78G | ≤ -4.2
28 | A64C G84U A150C | ≤ -4.2
29 | G68A A106C | -4.13
30 | A66G G68A A73C C85G A91C | ≤ -4.2
31 | G65U A91U C125A U134G | ≤ -4.2
32 | A66G G84U G136U | ≤ -4.2
33 | G68A C87A C105G | ≤ -4.2
34 | A64G C99A | -3.82
35 | G67A C85U A110U G124C A147U | ≤ -4.2
36 | A66C A122U | ≤ -4.2
37 | G68A C76G G94A | ≤ -4.2
38 | G68A U130G | ≤ -4.2
39 | A66C C72U | ≤ -4.2
40 | C63U C87G | -4.05
41 | A66U G86U C103A | ≤ -4.2
42 | A64G G68C A142G G143A | ≤ -4.2

Row | Variant | polymerase ribozyme fitness (log ratio)
43 | A64C G67A C93U G94C U145G | ≤ -4.2
44 | A66C G74U G81C C87A C118A G124A | ≤ -4.2
45 | C63U C69A G80A C85U G94C C99A | -3.32
46 | A64G A91C A115G U145C | -3.96
47 | G67A C75U C93A | ≤ -4.2
48 | G67C G92A C96U C118U | ≤ -4.2
49 | A66U G94A G100U U148G | ≤ -4.2
50 | G65C G68A G83A A115U G140A | ≤ -4.2
51 | G68A G81A C95A A150C G152A | ≤ -4.2
52 | A66C C99U G124C U144A | ≤ -4.2
53 | G68A C87U A98U | ≤ -4.2
54 | A64C G71A A91U C95G G126A A138C | ≤ -4.2
55 | G62U G88A C96A A115C G136U U145A A147U | ≤ -4.2
56 | A64G G70A G84A G100C G140U | ≤ -4.2
57 | G67C G68U U82C U90A C95U G112A G124A U146G | ≤ -4.2
58 | A64G G86U | ≤ -4.2
59 | G65A A91G C108A | ≤ -4.2
60 | A66U G88U A107U U135C | ≤ -4.2
61 | A66G G81A C87U U146G | ≤ -4.2
62 | A64U A66C G70C G83A C95U | ≤ -4.2
63 | G67A U144A | ≤ -4.2

Row | Variant | polymerase ribozyme fitness (log ratio)
64 | A66G A98U U134G | ≤ -4.2
65 | C63G U90G G94A | -3.97
66 | G68A U82G G88U | ≤ -4.2
67 | A66C A73C | ≤ -4.2
68 | G68A U104C A107G G128C | ≤ -4.2
69 | A64C G83C G141A | ≤ -4.2
70 | G67U C87G U130A | ≤ -4.2
71 | C63U A73U C103G U148A | ≤ -4.2
72 | C63U C75A G84A C118G A120G | ≤ -4.2
73 | G67A C76A | -4.16
74 | A66U C76U | ≤ -4.2
75 | G67A C79G C93G U104G | ≤ -4.2
76 | A64G C87A C116U A150G | ≤ -4.2
77 | G67A A119G A150U | ≤ -4.2
78 | C63U C75A G86A A89U A106U U134G | ≤ -4.2
79 | C63A G74A A89C | ≤ -4.2
80 | A66G C76U C85A C96U | ≤ -4.2
81 | C63G G65C A142U A150G | ≤ -4.2
82 | G68A G94U U151A | ≤ -4.2
83 | G62U A73U | -3.59
